In the supplement of paper PMC11417369:
The other results are listed elsewhere or left out.

System: PF3D7_0420300 AP2 domain 1 (GST-tagged)
Assay: gcPBM binding intensity (ln(normalized median fluorescence intensity)); higher = stronger DNA binding
Outline: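 The binding buffer was 1× PBS containing 1% milk, 0.2 mg/ml BSA, 0.5% salmon testes DNA and 0.03% Triton X-100. In it, GST-tagged P. falciparum DNA-binding domains expressed in E. coli were applied for 1 h to an Agilent 4 × 180k array of primer-extended double-stranded 36-bp intergenic genomic probes plus negative controls. Binding intensity, read with Alexa488 anti-GST antibody and a 488 nm scan, is the highest Masliner-normalised natural-log median intensity across replicate spots of either probe orientation.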

Sequence | gcPBM binding intensity (ln)
TAAATTGTATATGAGACTATACTATAAAAGTATGAA [XGTACX_negctrl_site22] | 9
TGTCTGTGCGGGTGTACACATTTCATATTACCCAAT [CACACA_site5593] | 9.57
TAATTTTTCCTTTTTGCACACATTAACGTCGACGAA [CACACA_site4025] | 9.31
CAATTTATTTTTATTACACACTATCCAAATAATTTC [CACACA_site2956] | 9.29
CCATAAAATCATAAGCGTACTTAATATATTTTACTT [XGTACX_site559] | 9.28
AGCATACATATTTTTTGTACATATATATATATATAT [XGTACX_site8536] | 9.34
AACATACGACAATACGCACACATATATGTACATATT [CACACA_site1917] | 9.51
TATATAATAATTTAGAGTACTGATAAAATATTCCAT [XGTACX_site6200] | 9.21
TTAAACAATTTAGACATACACACAAAAATAATATTA [CACACA_site385] | 9.67
TATAAAAAGCAAAACAAAAAAACAAATTGAAAAATT [TGCATGCA_negctrl_site158] | 9.51
TATAAATAATAAAGATGTACTTTTTATGATTCCTAC [XGTACX_site7003] | 9.1
CCGTAGTTTTAAAATAGTACTTTTATGGTTAATAAA [XGTACX_site3162] | 8.82
TTTTTTATTTTTTTATTGTTTTATTGTTTCATTGTT [XGTACX_negctrl_site128] | 9.48
TTACTACTATATTATACACACATATATTTATTTATA [CACACA_site7274] | 9.69
AATTAGATACTAACAAGTACATATATATATATATAT [XGTACX_site2252] | 9.59
TTTCCCTAATGAAAGTGTACCTGTGAGAAAAAAAAG [XGTACX_site194] | 8.96
ATTTAGATTAACACTTGTACATAATACATACAAATA [XGTACX_site4147] | 9.15
ATTTTTTTTTGTGTATATAAATAAATAAATATATAT [GTGCAC_negctrl_site603] | 9.07
TTGTAATTATTAAACACACACAAAATATCTAGAATA [CACACA_site7231] | 9.73
AAAAGAAAAGAGAGGAGTACAAAATATAATTATCTA [XGTACX_site5172] | 9.38
AAAAAAAAAAAAAGAACACACACAGTGCACATTCGG [CACACA_site8163] | 9.71
TTATTTATTTATATAGTGCAATAAACACATAAATAG | 8.87

Sequence | gcPBM binding intensity (ln)
TGTATATATTAATGTACACACATGCGTATGTTCGTT [CACACA_site3583] | 9.59
CATATTGGTATGCTCATGCACTTTTATTTTGTTATT [GTGCAC_site9553] | 9.63
ACTTTAAACAAAAAAAGTACTCTTTAATGAATATAT [XGTACX_site7176] | 9.01
TATATATATATATATATATATATATATATATGTTGT [TGCATGCA_negctrl_site24] | 9.07
CAATTTCTCTTAATTTGTACATATATGTTATACAAA [XGTACX_site3231] | 9.07
CAATATTTTATTTAAGCATGCTCTAGGGTGTAAAAG [TGCATGCA_site1001] | 8.99
AAATATATATAAAAGTGTACATTTGTTATAATCAGT [XGTACX_site4822] | 9.51
TAGATATATAATTTTTGTACGTAGTCGAATCTCAGA [XGTACX_site765] | 9.06
CTCAACAAAATATGAGTGCATTGTTATTACATATAT | 9.32
AACATTAAAAGGGATACACACATATAAATAAATAAT [CACACA_site489] | 9.91
TTATATATTTCTACTCATATTACAATGTGAGAAATA [CACACA_negctrl_site873] | 8.91
CCAACTAAAAAGGAATGTACATAGTTATGGTTGGAA [XGTACX_site8762] | 9.35
TTGTTTCTCTTTAAAAGTACAAAAATGGTTACATAT [XGTACX_site3109] | 8.95
TAGATTTTTTAATGTTGTACAAATATACGATATATA [XGTACX_site3258] | 8.99
ACTATTCATGCATATACACACACATATATATATATT [CACACA_site9309] | 10
TATAGTATTCTAAATGCATGTAAATTATGTATATAT [TGCATGCA_site931] | 9.38
TATATTATACTAAGAAGTACAATATTTTTATTGTAA [XGTACX_site2810] | 8.94
AAATTCCACGAACACACACACATATAAATAAATAAA [CACACA_site6697] | 9.97
TAGTAAAAACCAAAATGTACATGTGCCATTTTTTTA [XGTACX_site2630] | 9.09
GTTTATCACAGCCACGCACACATAATATCTGTATAT [CACACA_site5929] | 9.73
CTTATATTGTACAGTACACACCTTTATAATGTTATT [CACACA_site4280] | 9.65
GATTATTAATAGTAACGTACATATGTTATAAAATAT [XGTACX_site5277] | 9.21
